Assay results published in the supplement of paper PMC4967469.
By IC50 is meant the dose at which the fit gives 50% viability; a fit beyond the top or the lowest dose is shown as a bound at that dose. AUC is the area under the same curve over the 256-fold range up to the top dose, as a fraction; it is 1 without any effect and falls as sensitivity rises.

Compound: COc1ccc(C2=N[C@@H](c3ccc(Cl)cc3)[C@@H](c3ccc(Cl)cc3)N2C(=O)N2CCNC(=O)C2)c(OC(C)C)c1 [Nutlin-3a]
Assay: Viability of human cancer cell lines after 72 h of drug (GDSC screen)
Procedure: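 Human cancer cell lines in 384-well plates, medium with 10% serum, drug for 72 h over a 256-fold dose range (nine 2-fold or five 4-fold steps up to the top dose). Adherent lines were fixed and stained with the nucleic acid dye Syto60, suspension lines read with resazurin; signal relative to control wells, capped at 0 and 100%. One two-parameter sigmoid per drug and line, fitted in a mixed model over all curves with the slope shared within a line.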

Cell Line | AUC | IC50
NCI-H187 (small cell lung carcinoma, suspension, top dose 8 µM) | 0.988 | > 8 µM
NCI-H209 (small cell lung carcinoma, suspension, top dose 8 µM) | 0.951 | > 8 µM
NCI-H211 (small cell lung carcinoma, adherent, top dose 8 µM) | 0.965 | > 8 µM
NCI-H226 (lung squamous cell carcinoma, adherent, top dose 8 µM) | 0.828 | 5.27 µM
NCI-H322M (lung adenocarcinoma, suspension, top dose 8 µM) | 0.973 | > 8 µM
NCI-H345 (small cell lung carcinoma, suspension, top dose 8 µM) | 0.99 | > 8 µM
NCI-H358 (lung adenocarcinoma, adherent, top dose 4 µM) | 0.893 | > 4 µM
NCI-H446 (small cell lung carcinoma, semi-adherent, top dose 8 µM) | 0.985 | > 8 µM
NCI-H460 (large cell lung carcinoma, adherent, top dose 8 µM) | 0.836 | 4.6 µM
NCI-H508 (large intestine, semi-adherent, top dose 8 µM) | 0.976 | > 8 µM
NCI-H510A (small cell lung carcinoma, semi-adherent, top dose 8 µM) | 0.98 | > 8 µM
NCI-H520 (lung squamous cell carcinoma, adherent, top dose 8 µM) | 0.981 | > 8 µM
NCI-H522 (lung adenocarcinoma, adherent, top dose 4 µM) | 0.978 | > 4 µM
NCI-H524 (small cell lung carcinoma, suspension, top dose 8 µM) | 0.981 | > 8 µM
NCI-H526 (small cell lung carcinoma, suspension, top dose 8 µM) | 0.986 | > 8 µM
NCI-H596 (lung adenocarcinoma, adherent, top dose 8 µM) | 0.982 | > 8 µM
NCI-H630 (large intestine, adherent, top dose 8 µM) | 0.977 | > 8 µM
NCI-H647 (non-small cell lung carcinoma, adherent, top dose 8 µM) | 0.983 | > 8 µM
NCI-H650 (lung adenocarcinoma, adherent, top dose 8 µM) | 0.985 | > 8 µM

Cell Line | AUC | IC50
NCI-H661 (large cell lung carcinoma, adherent, top dose 8 µM) | 0.942 | > 8 µM
NCI-H720 (lung carcinoid, suspension, top dose 8 µM) | 0.99 | > 8 µM
NCI-H727 (lung carcinoid, adherent, top dose 8 µM) | 0.968 | > 8 µM
NCI-H747 (large intestine, adherent, top dose 8 µM) | 0.855 | > 8 µM
NCI-H810 (large cell lung carcinoma, adherent, top dose 8 µM) | 0.988 | > 8 µM
NCI-H835 (lung carcinoid, suspension, top dose 8 µM) | 0.984 | > 8 µM
NCI-H838 (lung adenocarcinoma, adherent, top dose 8 µM) | 0.987 | > 8 µM
NCI-H841 (small cell lung carcinoma, adherent, top dose 8 µM) | 0.988 | > 8 µM
NCI-H847 (small cell lung carcinoma, adherent, top dose 8 µM) | 0.993 | > 8 µM
NCI-H929 (myeloma, suspension, top dose 8 µM) | 0.801 | 3.24 µM
NCI-H1048 (small cell lung carcinoma, adherent, top dose 8 µM) | 0.99 | > 8 µM
NCI-H1092 (small cell lung carcinoma, suspension, top dose 8 µM) | 0.99 | > 8 µM
NCI-H1105 (small cell lung carcinoma, suspension, top dose 8 µM) | 0.993 | > 8 µM
NCI-H1155 (large cell lung carcinoma, suspension, top dose 8 µM) | 0.993 | > 8 µM
NCI-H1304 (small cell lung carcinoma, suspension, top dose 8 µM) | 0.988 | > 8 µM
NCI-H1341 (small cell lung carcinoma, suspension, top dose 8 µM) | 0.992 | > 8 µM
NCI-H1355 (lung adenocarcinoma, adherent, top dose 4 µM) | 0.957 | > 4 µM
NCI-H1395 (lung adenocarcinoma, adherent, top dose 8 µM) | 0.982 | > 8 µM
NCI-H1417 (small cell lung carcinoma, suspension, top dose 8 µM) | 0.977 | > 8 µM
